Source: a compilation of properties of binary mixtures (doi:10.1007/s10953-017-0695-7)
Some of these densities may be calculated back from excess volumes.

Assay: xn = mol fraction of the nth substance listed
Conditions: 101 kPa

## CCCCCC[n+]1ccn(C)c1.[Cl-] + OCCO
293.15 K, x1 = 0.0061
  mass density: 1111 kg/m3
293.15 K, x1 = 0.0124
  mass density: 1109.6 kg/m3
293.15 K, x1 = 0.0188
  mass density: 1107.7 kg/m3
293.15 K, x2 = 0
  mass density: 1037.6 kg/m3
293.15 K, x2 = 0.1526
  mass density: 1042.5 kg/m3
293.15 K, x2 = 0.3167
  mass density: 1047.5 kg/m3
293.15 K, x2 = 0.3999
  mass density: 1049.9 kg/m3
293.15 K, x2 = 0.6987
  mass density: 1064.3 kg/m3
293.15 K, x2 = 0.8026
  mass density: 1074.1 kg/m3
293.15 K, x2 = 0.8897
  mass density: 1086.9 kg/m3
293.15 K, x2 = 0.8998
  mass density: 1088.8 kg/m3
293.15 K, x2 = 0.9152
  mass density: 1091.8 kg/m3
293.15 K, x2 = 0.931
  mass density: 1095.1 kg/m3
293.15 K, x2 = 0.9532
  mass density: 1100.3 kg/m3
293.15 K, x2 = 0.9642
  mass density: 1103.2 kg/m3
293.15 K, x2 = 0.9761
  mass density: 1106.3 kg/m3
303.15 K, x1 = 0.003
  mass density: 1105.3 kg/m3
303.15 K, x1 = 0.0061
  mass density: 1104 kg/m3
303.15 K, x1 = 0.0124
  mass density: 1102.6 kg/m3
303.15 K, x2 = 0.1526
  mass density: 1038.2 kg/m3
303.15 K, x2 = 0.3167
  mass density: 1042 kg/m3
303.15 K, x2 = 0.3999
  mass density: 1044.1 kg/m3
303.15 K, x2 = 0.4977
  mass density: 1047.5 kg/m3
303.15 K, x2 = 0.6002
  mass density: 1052 kg/m3
303.15 K, x2 = 0.6987
  mass density: 1058.1 kg/m3
303.15 K, x2 = 0.8026
  mass density: 1067.6 kg/m3
303.15 K, x2 = 0.8897
  mass density: 1080.3 kg/m3
303.15 K, x2 = 0.8998
  mass density: 1082.2 kg/m3
303.15 K, x2 = 0.9152
  mass density: 1085.1 kg/m3
303.15 K, x2 = 0.931
  mass density: 1088.4 kg/m3
303.15 K, x2 = 0.9532
  mass density: 1093.6 kg/m3
303.15 K, x2 = 0.9642
  mass density: 1096.3 kg/m3
303.15 K, x2 = 0.9761
  mass density: 1099.5 kg/m3
313.15 K, x1 = 0.003
  mass density: 1098.3 kg/m3
313.15 K, x1 = 0.0061
  mass density: 1097 kg/m3
313.15 K, x1 = 0.0124
  mass density: 1095.7 kg/m3
313.15 K, x2 = 0
  mass density: 1029.3 kg/m3
313.15 K, x2 = 0.1526
  mass density: 1032.6 kg/m3
313.15 K, x2 = 0.3167
  mass density: 1036.3 kg/m3
313.15 K, x2 = 0.3999
  mass density: 1038.5 kg/m3
313.15 K, x2 = 0.4977
  mass density: 1041.7 kg/m3
313.15 K, x2 = 0.6002
  mass density: 1045.9 kg/m3
313.15 K, x2 = 0.8026
  mass density: 1061.2 kg/m3
313.15 K, x2 = 0.8998
  mass density: 1075.5 kg/m3
313.15 K, x2 = 0.9152
  mass density: 1078.4 kg/m3
313.15 K, x2 = 0.931
  mass density: 1081.6 kg/m3
313.15 K, x2 = 0.9532
  mass density: 1086.7 kg/m3
323.15 K, x1 = 0.003
  mass density: 1091.2 kg/m3
323.15 K, x1 = 0.0124
  mass density: 1088.6 kg/m3
323.15 K, x1 = 0.0188
  mass density: 1086.9 kg/m3
323.15 K, x2 = 0.1526
  mass density: 1027.2 kg/m3
323.15 K, x2 = 0.3167
  mass density: 1030.8 kg/m3
323.15 K, x2 = 0.3999
  mass density: 1032.9 kg/m3
323.15 K, x2 = 0.4977
  mass density: 1035.8 kg/m3
323.15 K, x2 = 0.8026
  mass density: 1054.7 kg/m3
323.15 K, x2 = 0.8897
  mass density: 1066.9 kg/m3
323.15 K, x2 = 0.9152
  mass density: 1071.6 kg/m3
323.15 K, x2 = 0.931
  mass density: 1074.8 kg/m3
323.15 K, x2 = 0.9532
  mass density: 1079.8 kg/m3
323.15 K, x2 = 0.9761
  mass density: 1085.5 kg/m3
333.15 K, x1 = 0.003
  mass density: 1084 kg/m3
333.15 K, x1 = 0.0124
  mass density: 1081.5 kg/m3
333.15 K, x1 = 0.0188
  mass density: 1079.8 kg/m3
333.15 K, x2 = 0
  mass density: 1019 kg/m3
333.15 K, x2 = 0.3167
  mass density: 1025.3 kg/m3
333.15 K, x2 = 0.3999
  mass density: 1027.2 kg/m3
333.15 K, x2 = 0.6002
  mass density: 1033.9 kg/m3
333.15 K, x2 = 0.8026
  mass density: 1048.2 kg/m3
333.15 K, x2 = 0.8897
  mass density: 1060.1 kg/m3
333.15 K, x2 = 0.8998
  mass density: 1061.9 kg/m3
333.15 K, x2 = 0.9152
  mass density: 1064.8 kg/m3
333.15 K, x2 = 0.931
  mass density: 1067.9 kg/m3
333.15 K, x2 = 0.9642
  mass density: 1075.5 kg/m3
333.15 K, x2 = 0.9761
  mass density: 1078.4 kg/m3

## CCCCCO + CCCCCC[n+]1ccn(C)c1.[Cl-]
293.15 K, x1 = 1
  mass density: 814.9 kg/m3
313.15 K, x1 = 1
  mass density: 800.1 kg/m3
323.15 K, x1 = 1
  mass density: 792.5 kg/m3
333.15 K, x1 = 1
  mass density: 784.6 kg/m3

## CCCCCC[n+]1ccn(C)c1.[Cl-] + CCCCCO
293.15 K, x1 = 0.0042
  mass density: 816.8 kg/m3
293.15 K, x1 = 0.0166
  mass density: 822.2 kg/m3
293.15 K, x2 = 0
  mass density: 1037.6 kg/m3
293.15 K, x2 = 0.1514
  mass density: 1020.2 kg/m3
293.15 K, x2 = 0.2971
  mass density: 1001.6 kg/m3
293.15 K, x2 = 0.5018
  mass density: 968.1 kg/m3
293.15 K, x2 = 0.6066
  mass density: 943.7 kg/m3
293.15 K, x2 = 0.7018
  mass density: 918.4 kg/m3
293.15 K, x2 = 0.8012
  mass density: 887.4 kg/m3
293.15 K, x2 = 0.8825
  mass density: 860.6 kg/m3
293.15 K, x2 = 0.9494
  mass density: 836 kg/m3
293.15 K, x2 = 0.9749
  mass density: 825.7 kg/m3
303.15 K, x1 = 0.0088
  mass density: 811.6 kg/m3
303.15 K, x2 = 0
  mass density: 1033.8 kg/m3
303.15 K, x2 = 0.2971
  mass density: 996.1 kg/m3
303.15 K, x2 = 0.5018
  mass density: 962.1 kg/m3
303.15 K, x2 = 0.6066
  mass density: 937.5 kg/m3
303.15 K, x2 = 0.7018
  mass density: 911.9 kg/m3
303.15 K, x2 = 0.8012
  mass density: 880.8 kg/m3
303.15 K, x2 = 0.849
  mass density: 866.3 kg/m3
303.15 K, x2 = 0.8825
  mass density: 853.8 kg/m3
303.15 K, x2 = 0.9494
  mass density: 829 kg/m3
303.15 K, x2 = 0.9749
  mass density: 818.5 kg/m3
313.15 K, x1 = 0.0088
  mass density: 804.2 kg/m3
313.15 K, x1 = 0.0166
  mass density: 807.6 kg/m3
313.15 K, x2 = 0
  mass density: 1029.3 kg/m3
313.15 K, x2 = 0.1514
  mass density: 1010.1 kg/m3
313.15 K, x2 = 0.5018
  mass density: 956.1 kg/m3
313.15 K, x2 = 0.6066
  mass density: 931.4 kg/m3
313.15 K, x2 = 0.7018
  mass density: 905.5 kg/m3
313.15 K, x2 = 0.849
  mass density: 859.5 kg/m3
313.15 K, x2 = 0.8825
  mass density: 846.9 kg/m3
313.15 K, x2 = 0.9494
  mass density: 821.8 kg/m3
313.15 K, x2 = 0.9749
  mass density: 811.1 kg/m3
323.15 K, x1 = 0.0042
  mass density: 794.4 kg/m3
323.15 K, x1 = 0.0088
  mass density: 796.7 kg/m3
323.15 K, x1 = 0.0166
  mass density: 800.1 kg/m3
323.15 K, x2 = 0.1514
  mass density: 1004.8 kg/m3
323.15 K, x2 = 0.2971
  mass density: 984.8 kg/m3
323.15 K, x2 = 0.5018
  mass density: 950.1 kg/m3
323.15 K, x2 = 0.6066
  mass density: 925.2 kg/m3
323.15 K, x2 = 0.7018
  mass density: 899 kg/m3
323.15 K, x2 = 0.849
  mass density: 852.7 kg/m3
323.15 K, x2 = 0.8825
  mass density: 839.9 kg/m3
323.15 K, x2 = 0.9494
  mass density: 814.5 kg/m3
323.15 K, x2 = 0.9749
  mass density: 803.7 kg/m3
333.15 K, x1 = 0.0042
  mass density: 786.7 kg/m3
333.15 K, x1 = 0.0088
  mass density: 789 kg/m3
333.15 K, x1 = 0.0166
  mass density: 792.5 kg/m3
333.15 K, x2 = 0
  mass density: 1019 kg/m3
333.15 K, x2 = 0.1514
  mass density: 999.3 kg/m3
333.15 K, x2 = 0.2971
  mass density: 979.2 kg/m3
333.15 K, x2 = 0.5018
  mass density: 944.1 kg/m3
333.15 K, x2 = 0.6066
  mass density: 919 kg/m3
333.15 K, x2 = 0.8012
  mass density: 860.7 kg/m3
333.15 K, x2 = 0.849
  mass density: 845.7 kg/m3
333.15 K, x2 = 0.8825
  mass density: 832.9 kg/m3
333.15 K, x2 = 0.9494
  mass density: 807.1 kg/m3
333.15 K, x2 = 0.9749
  mass density: 796.1 kg/m3

## OCCO + CCCCCC[n+]1ccn(C)c1.[Cl-]
293.15 K, x1 = 1
  mass density: 1112.9 kg/m3
303.15 K, x1 = 1
  mass density: 1105.9 kg/m3
313.15 K, x1 = 1
  mass density: 1098.8 kg/m3
323.15 K, x1 = 1
  mass density: 1091.7 kg/m3
333.15 K, x1 = 1
  mass density: 1084.5 kg/m3
